Reference: PubChem BioAssay (NCATS)
The shares of active, inactive and inconclusive entries below differ from those in the screen. For some assays here: Potencies of inconclusive entries are doubtful fits and often do not repeat. Active and inactive are the calls of the source. Unless noted, the call rests on the fitted dose curve; in most records, active means well fitted curve in the direction sought with a large enough effect; inconclusive means small, poorly fitted or top-dose-only effect, or another doubt; inactive means no such curve, though single readings can be large; an effect the other way counts as inactive or inconclusive.

Tests used:
[1] = P-glycoprotein substrates identified in KB-8-5-11 adenocarcinoma cell line, qHTS therapeutic library screen (AID 1346987); further: potency means the concentration at half of the fitted maximal effect; nearly all actives have a fitted effect of over 65% in size
Procedure, shortened: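 Compounds are pinned in dose-response onto KB-8-5-11 cells (500 cells/well, colchicine-free medium) and left 72 h at 37 degree C. CellTiter-Glo luminescence then yields AC50 values.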

[2] = system: Zika virus NS2B-NS3 protease (unlinked complex); experiment: Primary screen GU Rhodamine qHTS for Zika virus inhibitors: Unlinked NS2B-NS3 protease assay (AID 1347159); further: potency means the concentration at half of the fitted maximal effect; nearly all actives have a fitted effect of over 60% in size
Procedure, shortened: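 Percent inhibition came from the 15-min rise in Rhodamine110 fluorescence (1.5 microM substrate, ~15% conversion), normalized to no-inhibitor and no-enzyme wells and Hill-fitted. Unlinked protease, 25 nM, pH 8.0 Tris buffer; compounds up to 114 microM, 15-min preincubation.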

[3] = biological target: Cytochrome P450 2D6 (Homo sapiens) (UniProt P10635); experiment: Cytochrome P450 family 2 subfamily D member 6 (CYP2D6) small molecule antagonists: luciferase biochemical (cell-free) qHTS assay (AID 1645840; active means well fitted curve in the direction sought with a large enough effect in the repeat runs; inconclusive means weak or mixed curves; inactive means no such curve, though single readings can be large; an effect the other way counts as inactive or inconclusive; further: potency means the concentration at half of the fitted maximal effect; nearly all actives have a fitted effect of over 55% in size)
Chain of UniProt P10635 (P10635 whole entry, looked up): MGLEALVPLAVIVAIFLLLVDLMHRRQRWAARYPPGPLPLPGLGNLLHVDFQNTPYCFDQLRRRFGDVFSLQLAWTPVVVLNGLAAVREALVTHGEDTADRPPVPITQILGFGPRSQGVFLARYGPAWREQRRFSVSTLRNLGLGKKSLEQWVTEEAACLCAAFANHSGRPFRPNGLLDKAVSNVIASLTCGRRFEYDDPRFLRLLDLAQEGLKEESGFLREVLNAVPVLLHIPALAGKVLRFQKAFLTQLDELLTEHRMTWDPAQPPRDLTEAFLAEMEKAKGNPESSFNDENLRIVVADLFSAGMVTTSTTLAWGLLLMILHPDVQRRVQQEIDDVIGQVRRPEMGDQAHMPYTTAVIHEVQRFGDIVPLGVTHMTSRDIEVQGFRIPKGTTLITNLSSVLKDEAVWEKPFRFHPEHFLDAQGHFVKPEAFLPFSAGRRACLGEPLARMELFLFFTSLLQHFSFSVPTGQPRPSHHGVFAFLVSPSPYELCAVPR
Procedure, shortened: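 P450-Glo CYP2D6 system: proluciferin substrate converted by enzyme to luciferin, read by luminescence proportional to activity. Enzyme-substrate mix with compound 10 min at room temperature, then NADPH regeneration 1 h before detection reagent.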

[4] = Primary qHTS for inhibitors of nuclear receptor binding SET domain protein 2 (NSD2) in an isogenic RCH-ACV NSD2 p.E1099K mutant (9B) (AID 1645876); further: potency means the concentration at half of the fitted maximal effect; nearly all actives have a fitted effect of over 70% in size
[5] = Primary qHTS for inhibitors of nuclear receptor binding SET domain protein 2 (NSD2) in an RCH-ACV wild type WT cells (2C) (AID 1645877); conditions: activity change, negative = cell killing: at 44.9 µM (top of the series) unless noted; further: nearly all actives have a fitted effect of over 70% in size; further: potency means the concentration at half of the fitted maximal effect
HEK293 = experiment: Cytotoxic Profiling of Annotated Libraries Using Quantitative High-Throughput Screening (AID 1296008); conditions: Five cell lines viability, CellTiter-Glo ATP luminescence, 48-72 h; max response: active compounds read low; further: nearly all actives have a fitted effect of over 60% in size; further: potency means the concentration at half of the fitted maximal effect; on max response: on the % scale 0 is the no-effect control and ±100 the full control effect
Procedure, shortened: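 Compounds were pin-transferred onto cells and incubated 48 or 72 hr at 37 degree Celsius, 95% humidity. CellTiter-Glo was added, plates sat 10 min at room temperature, then ATP-coupled luminescence was imaged as the viability read-out.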

CAOV3 = experiment: Primary qHTS to identify gynecologic anti-cancer compounds using libraries of approved drugs and bioactive compounds (AID 1345084); conditions: Gynecologic cancer cell panel viability, ATPlite luminescence, 48 h; activity change, negative = cytotoxicity: at 57.5 µM (top of the series); further: nearly all actives have a fitted effect of over 55% in size; further: potency means the concentration at half of the fitted maximal effect; on activity change, negative = cytotoxicity: on the % scale 0 is the no-effect control and ±100 the full control effect
Procedure, shortened: (§1)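 Cell viability after 48 h drug treatment, ATPlite luminescence readout; five doses.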

[6] = biological target: DNA polymerase kappa (Homo sapiens) (UniProt Q9UBT6); experiment: qHTS for Inhibitors of Polymerase Kappa: Confirmatory Assay for Cherry-picked Compounds (AID 720501); conditions: purified Pol-kappa, fluorescent strand-displacement substrate; further: potency means the concentration at half of the fitted maximal effect
Chain of UniProt Q9UBT6 (Q9UBT6 whole entry, looked up): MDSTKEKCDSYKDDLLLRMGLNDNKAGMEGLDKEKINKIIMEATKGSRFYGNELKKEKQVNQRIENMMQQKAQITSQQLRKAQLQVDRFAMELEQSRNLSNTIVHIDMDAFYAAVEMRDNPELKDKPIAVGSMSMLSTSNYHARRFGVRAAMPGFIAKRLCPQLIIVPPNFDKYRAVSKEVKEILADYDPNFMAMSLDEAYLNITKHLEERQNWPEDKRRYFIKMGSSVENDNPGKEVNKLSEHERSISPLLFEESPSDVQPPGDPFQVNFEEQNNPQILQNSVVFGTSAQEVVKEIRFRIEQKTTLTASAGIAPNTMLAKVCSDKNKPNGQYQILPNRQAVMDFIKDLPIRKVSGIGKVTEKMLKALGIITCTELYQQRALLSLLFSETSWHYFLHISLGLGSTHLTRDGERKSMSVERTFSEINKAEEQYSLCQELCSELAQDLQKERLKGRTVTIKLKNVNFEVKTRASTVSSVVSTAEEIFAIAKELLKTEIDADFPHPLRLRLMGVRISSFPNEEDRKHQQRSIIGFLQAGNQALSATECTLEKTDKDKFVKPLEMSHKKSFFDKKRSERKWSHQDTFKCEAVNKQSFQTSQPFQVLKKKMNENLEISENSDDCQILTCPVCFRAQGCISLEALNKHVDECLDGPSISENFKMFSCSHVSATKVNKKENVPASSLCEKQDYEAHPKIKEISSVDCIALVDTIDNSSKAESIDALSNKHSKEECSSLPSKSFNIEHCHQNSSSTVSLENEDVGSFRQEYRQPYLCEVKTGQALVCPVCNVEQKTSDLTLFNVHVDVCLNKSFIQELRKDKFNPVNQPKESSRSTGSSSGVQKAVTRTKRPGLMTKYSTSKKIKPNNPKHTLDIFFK
Procedure, shortened: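 Human Pol-kappa, dispensed at 10 nM, was preincubated with compounds for 15 min at room temperature. Reactions were started with primer/template substrate (50 nM final) carrying a TAMRA reporter strand and BHQ-2-quenched template, and fluorescence (ex 525/em 598 nm) was read at 0 and 10 min.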

Furin (Homo sapiens) = Furin (Homo sapiens) (UniProt P09958); experiment: Furin counterscreen qHTS for Zika virus inhibitors (AID 1347149); conditions: furin enzymatic counterscreen, fluorogenic substrate; activity change, negative = inhibition: at 57.5 µM (top of the series); further: potency means the concentration at half of the fitted maximal effect; nearly all actives have a fitted effect of over 70% in size
Chain of UniProt P09958 (P09958 whole entry, looked up): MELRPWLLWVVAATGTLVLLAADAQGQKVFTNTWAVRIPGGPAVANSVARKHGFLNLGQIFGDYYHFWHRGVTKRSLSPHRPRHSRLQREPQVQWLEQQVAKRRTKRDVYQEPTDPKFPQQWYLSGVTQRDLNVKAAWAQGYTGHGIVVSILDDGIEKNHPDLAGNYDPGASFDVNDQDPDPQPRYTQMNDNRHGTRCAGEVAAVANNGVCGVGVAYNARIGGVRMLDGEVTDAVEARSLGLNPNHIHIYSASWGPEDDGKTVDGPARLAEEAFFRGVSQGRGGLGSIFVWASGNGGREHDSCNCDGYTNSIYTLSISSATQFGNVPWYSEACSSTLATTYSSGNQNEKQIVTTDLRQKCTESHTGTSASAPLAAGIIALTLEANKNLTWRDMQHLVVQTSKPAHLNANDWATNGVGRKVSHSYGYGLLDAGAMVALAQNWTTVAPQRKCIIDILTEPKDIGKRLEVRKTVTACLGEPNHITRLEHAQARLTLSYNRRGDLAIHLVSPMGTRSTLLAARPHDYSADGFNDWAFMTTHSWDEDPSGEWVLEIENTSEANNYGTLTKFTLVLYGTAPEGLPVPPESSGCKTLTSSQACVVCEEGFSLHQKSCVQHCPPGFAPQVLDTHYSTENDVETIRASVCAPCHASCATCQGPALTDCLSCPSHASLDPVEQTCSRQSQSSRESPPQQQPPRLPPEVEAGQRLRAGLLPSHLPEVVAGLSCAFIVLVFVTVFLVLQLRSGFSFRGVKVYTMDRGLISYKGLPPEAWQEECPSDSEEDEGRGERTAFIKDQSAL
Procedure, shortened: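 Counterscreen measures cleavage of 2 microM BOC-RVRR-AMC, below its ~15 microM Km, by 5 nM full-length human furin at pH 7.0 after a 15-min compound preincubation. Inhibition derives from the 15-min fluorescence increase at 37C.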

[7] = system: Zika virus NS2B-NS3 protease (linked construct); experiment: Confirmatory screen NINDS AMC qHTS for Zika virus inhibitors (AID 1347152); further: potency means the concentration at half of the fitted maximal effect; nearly all actives have a fitted effect of over 70% in size
Procedure, shortened: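 Linked NS2B-NS3 protease, 1 nM, in 10 mM Tris-HCl pH 8.0, 0.01% Tween 20; compounds preincubated 15 min at room temperature. Nle-KRR-AMC 10 microM (Km 18.3 µM); 15-min fluorescence change (340/450 nm) fitted to 4-parameter Hill.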

[8] = system: Zika virus NS2B-NS3 protease (unlinked complex); experiment: Confirmatory screen GU AMC qHTS for Zika virus inhibitors (AID 1347153)
Procedure, shortened: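 Compounds were preincubated 15 min at room temperature with 25 nM noncovalent NS2B-NS3 protease at pH 8.0; AMC substrate added at 10 microM and 15-min fluorescence gain (340/450 nm) converted to percent inhibition, fitted 4-parameter.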

[9] = ZIKV-mCherry secondary qHTS for Zika virus inhibitors (AID 1347158); further: potency means the concentration at half of the fitted maximal effect
Procedure, shortened: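 Percent infection is the share of Hoechst-identified Vero nuclei with mCherry signal above 450 RFU (3 SD over negative controls). Cells were infected with recombinant ZIKV-mCherry at MOI 1 after compound addition and imaged 48–72 h later.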

[10] = system: Zika virus NS2B-NS3 protease (linked construct); experiment: Primary screen NINDS Rhodamine qHTS for Zika virus inhibitors (AID 1347160); conditions: activity change, negative = inhibition: at 57.1 µM (top of the series) unless noted; further: potency means the concentration at half of the fitted maximal effect; nearly all actives have a fitted effect of over 55% in size
Procedure, shortened: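 Rhodamine110-peptide cleavage (1.5 µM substrate) by 25 nM linked NS2B-NS3 enzyme at pH 8.0 (Tris, Tween 20), after 15 min RT preincubation with compounds; 15-min fluorescence change normalized to controls and Hill-fitted.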

[11] = Tertiary RLuc qRT-PCR qHTS assay for Zika virus inhibitors (AID 1347169)
Procedure, shortened: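 Vero cells (1,000/well) infected with recombinant ZIKV-RLuc (Cambodian) at MOI 1-2 after compound addition, 48-72 hrs at 37 degrees C. Live-cell Renilla luciferase substrate added; luminescence read after 1-1.5 hrs.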

[12] = biological target: Cytochrome P450 2C9 (Homo sapiens) (UniProt P11712); experiment: Cytochrome P450 family 2 subfamily C member 9 (CYP2C9) small molecule antagonists: luciferase biochemical (cell-free) qHTS assay (AID 1645842; active means well fitted curve in the direction sought with a large enough effect in the repeat runs; inconclusive means weak or mixed curves; inactive means no such curve, though single readings can be large; an effect the other way counts as inactive or inconclusive)
Chain of UniProt P11712 (P11712 whole entry, looked up): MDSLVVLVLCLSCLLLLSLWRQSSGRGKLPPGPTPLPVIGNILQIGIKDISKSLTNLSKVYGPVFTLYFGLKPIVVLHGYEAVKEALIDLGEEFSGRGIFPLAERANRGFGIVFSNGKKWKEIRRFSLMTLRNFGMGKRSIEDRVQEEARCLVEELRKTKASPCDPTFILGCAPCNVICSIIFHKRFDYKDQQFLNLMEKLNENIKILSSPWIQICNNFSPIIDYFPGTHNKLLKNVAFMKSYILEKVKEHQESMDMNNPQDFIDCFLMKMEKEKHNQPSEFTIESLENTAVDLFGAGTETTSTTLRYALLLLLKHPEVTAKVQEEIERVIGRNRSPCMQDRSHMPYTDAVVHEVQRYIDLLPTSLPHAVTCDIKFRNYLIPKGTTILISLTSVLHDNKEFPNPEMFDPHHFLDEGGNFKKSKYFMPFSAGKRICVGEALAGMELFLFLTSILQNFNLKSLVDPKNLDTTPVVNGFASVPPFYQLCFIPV
Procedure, shortened: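 P450-Glo CYP2C9 system: proluciferin substrate with enzyme in mix containing 0.4% BSA, 10 min at room temperature, then NADPH regeneration solution added and incubated 1 h at 37C. Detection reagent stopped reaction; luminescence read after 20 min as RLU.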

[13] = biological target: Rap guanine nucleotide exchange factor 3 (Homo sapiens) (UniProt O95398); experiment: Confirmatory qHTS for agonist of cAMP-regulated guanine nucleotide exchange factor 3 (EPAC1) (AID 1645881); conditions: EPAC1 Rap1B BODIPY-GDP exchange fluorescence, 100% = cAMP control response; at 154 µM (top of the series);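 further: EPAC1 catalysed release of BODIPY-GDP from Rap1B seen as fluorescence loss; nearly all actives have a fitted effect of over 75% in size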
Chain of UniProt O95398 (O95398 whole entry, looked up): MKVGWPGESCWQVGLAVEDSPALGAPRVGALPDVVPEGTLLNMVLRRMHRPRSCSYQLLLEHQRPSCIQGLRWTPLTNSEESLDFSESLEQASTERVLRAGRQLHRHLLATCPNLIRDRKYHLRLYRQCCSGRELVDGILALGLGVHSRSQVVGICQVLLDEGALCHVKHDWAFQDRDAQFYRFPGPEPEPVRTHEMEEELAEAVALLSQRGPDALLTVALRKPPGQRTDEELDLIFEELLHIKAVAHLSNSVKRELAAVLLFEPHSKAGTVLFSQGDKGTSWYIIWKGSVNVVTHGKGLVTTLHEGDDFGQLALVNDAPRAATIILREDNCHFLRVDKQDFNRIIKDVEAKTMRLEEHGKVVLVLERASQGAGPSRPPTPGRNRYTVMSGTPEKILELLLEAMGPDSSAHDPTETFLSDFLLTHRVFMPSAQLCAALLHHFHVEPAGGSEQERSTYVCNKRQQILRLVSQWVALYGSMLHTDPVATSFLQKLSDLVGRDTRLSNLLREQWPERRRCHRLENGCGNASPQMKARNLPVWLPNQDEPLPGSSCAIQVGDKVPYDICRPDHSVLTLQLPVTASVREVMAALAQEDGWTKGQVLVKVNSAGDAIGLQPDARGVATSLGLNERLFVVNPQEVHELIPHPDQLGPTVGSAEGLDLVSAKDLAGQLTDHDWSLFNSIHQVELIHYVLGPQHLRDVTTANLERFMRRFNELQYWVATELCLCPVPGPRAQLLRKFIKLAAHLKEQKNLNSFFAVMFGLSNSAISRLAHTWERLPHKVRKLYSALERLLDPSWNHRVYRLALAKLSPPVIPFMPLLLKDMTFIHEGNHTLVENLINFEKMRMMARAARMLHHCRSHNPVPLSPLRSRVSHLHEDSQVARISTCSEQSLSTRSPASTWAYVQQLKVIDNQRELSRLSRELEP

[14] = biological target: Rap guanine nucleotide exchange factor 3 (Homo sapiens) (UniProt O95398); experiment: Counterscreen qHTS for agonist of cAMP-regulated guanine nucleotide exchange factor 3 (EPAC1) (AID 1645889); conditions: EPAC1 Rap1B-BODIPY-GDP exchange, fluorescence; activation: at 30.8 µM (top of the series) unless noted; further: % of control where 0% means no effect; nearly all actives have a fitted effect of over 40% in size
Procedure, shortened: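 Measured: fluorescence of BODIPY-GDP bound to Rap1B, which falls as exchange proceeds. Conditions include 50 uM competing GDP, 5 and 30 min reads, and a later cAMP challenge for antagonist detection.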

[15] = biological target: Calcium and integrin-binding protein 1 (Homo sapiens) (UniProt Q99828); experiment: Primary qHTS for Identification of Calcium Integrin Binding Protein 1 (CIB1) Competitor (AID 1508620); further: potency means the concentration at half of the fitted maximal effect
Chain of UniProt Q99828 (Q99828 whole entry, looked up): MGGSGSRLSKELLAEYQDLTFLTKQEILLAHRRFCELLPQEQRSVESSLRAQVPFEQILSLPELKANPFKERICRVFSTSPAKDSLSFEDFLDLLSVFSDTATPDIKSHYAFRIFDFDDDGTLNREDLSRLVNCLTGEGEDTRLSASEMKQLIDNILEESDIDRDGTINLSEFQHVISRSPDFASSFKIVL
Procedure, shortened: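 Fluorescence polarization competition: CIB1-GST (1 uM final) preincubated with compound 15 min at room temperature, then FITC-labeled alphaIIb peptide (100 nM final) added for another 15 min. Polarization read at Ex 480/Em 540.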

[16] = Primary fluorescence-based thiol-reactive (MSTI) qHTS assay for identification of artifact compounds. (AID 1845221);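 further: potency means the concentration at half of the fitted maximal effect; thiol-reactive compounds lower the probe fluorescence signal; nearly all actives have a fitted effect of over 65% in size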
Procedure, shortened: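 Probe: MSTI 4 uM, PBS pH 7.4, 2% DMSO. Incubation 1 h, RT, light-protected. Readout fluorescence 525/598 nm.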

SKOV3 = experiment: Primary qHTS to identify gynecologic anti-cancer compounds using libraries of approved drugs and bioactive compounds (AID 1345084); conditions: Gynecologic cancer cell panel viability, ATPlite luminescence, 48 h; series mostly up to 57.5 µM; further: nearly all actives have a fitted effect of over 55% in size; further: potency means the concentration at half of the fitted maximal effect; on activity change, negative = cytotoxicity: on the % scale 0 is the no-effect control and ±100 the full control effect
Procedure, shortened: as §1
Tags describe the fitted curve by direction and shape.

O=C1COc2nccc(-c3ccccc3F)c2CN1Cc1cc(C(F)(F)F)cc(C(F)(F)F)c1
inconclusive: Potency [1] 25.9 µM [inhibitor, single point] | Potency [2] 39.8 µM [inhibitor, partial curve] | Potency [3] 15.1 µM [inhibitor, partial curve] | Potency [4] 18.3 µM [inhibitor, single point] | Potency [5] 7.28 µM [inhibitor, partial curve] | Potency (HEK293) 20.6 µM [inhibitor, single point]
inactive: Potency (CAOV3)

Cc1ccc([C@@H]2CC=C(C(=O)O)[C@H](c3ccc(C(C)(C)C)cc3)N2S(=O)(=O)c2ccc(C)cc2)cc1
active: Potency [7] 15.6 µM | Potency [8] 19.7 µM | Potency [2] 2.51 µM | Potency [10] 2.24 µM | Potency [11] 18.6 µM
inconclusive: Potency [6] 75.2 µM [inhibitor, partial curve] | Potency [1] 29.1 µM [inhibitor, partial curve, poor fit] | Potency (Furin (Homo sapiens)) 38.3 µM [inhibitor, partial curve, poor fit] | Potency [9] 10 µM [inhibitor, full curve, poor fit] | Potency [3] 37.9 µM [inhibitor, single point] | Potency [12] 13.5 µM [inhibitor, partial curve] | Potency [4] 23 µM [inhibitor, single point] | Potency [5] 29 µM [inhibitor, single point] | Potency (CAOV3) 15.8 µM [rising, single point]
inactive: activation [13] -17% | Potency [14] | max response (HEK293) -30.1%

CC(NC(=O)CC(=O)O)c1nc2ccccc2c(=O)[nH]1 (stereo not drawn)
inconclusive: Potency [16] 7.52 µM [inhibitor, partial curve]
active: Potency [2] 44.7 µM | Potency [10] 25.1 µM | Potency [15] 28.2 µM
inactive: Potency [5] | outcome (HEK293) | Potency (CAOV3)

C=CC(C)(O)CC[C@@H]1[C@@]2(C)CCCC(C)(C)C2CC[C@@]1(C)O (stereo partly drawn)
inconclusive: Potency [1] 29.1 µM [inhibitor, single point] | Potency [2] 50.1 µM [inhibitor, partial curve] | Potency [4] 20.5 µM [inhibitor, single point] | Potency [5] 18.3 µM [inhibitor, partial curve] | Potency (HEK293) 20.6 µM [inhibitor, single point] | Potency (CAOV3) 6.31 µM [cytotoxic, single point] | Potency (SKOV3) 3.55 µM [rising, single point]
